Assay [1] concerns the target T1, BIK1-nLUC (Arabidopsis thaliana) (UniProt O48814).
T1 sequence: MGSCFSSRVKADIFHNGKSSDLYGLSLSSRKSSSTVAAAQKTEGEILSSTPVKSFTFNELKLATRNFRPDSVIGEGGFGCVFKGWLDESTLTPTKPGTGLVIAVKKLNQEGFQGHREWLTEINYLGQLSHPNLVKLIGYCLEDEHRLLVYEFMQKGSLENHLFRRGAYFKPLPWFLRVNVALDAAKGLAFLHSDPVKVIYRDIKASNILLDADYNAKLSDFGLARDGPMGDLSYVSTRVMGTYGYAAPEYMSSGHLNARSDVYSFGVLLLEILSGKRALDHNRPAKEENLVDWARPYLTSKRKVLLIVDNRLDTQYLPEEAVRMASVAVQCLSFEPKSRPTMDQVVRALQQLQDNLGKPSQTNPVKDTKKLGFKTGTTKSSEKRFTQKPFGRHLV
Description: split reporter; split luciferase (LUC) complementation (LCI): nLUC and cLUC fusions transiently co-expressed in N. benthamiana leaves by Agrobacterium infiltration, LUC signal imaged with a CCD camera two days later; in some panels BIK1-GFP or GFP co-expressed.

The chains behind the UniProt entries cited, without tags or fusion partners. Where a name states a change or a piece, a line headed by the entry shows the natural chain unless it says otherwise. A line that says so, or that is headed by a name, gives the form on record, which may keep a tag or linker.
UniProt P49597: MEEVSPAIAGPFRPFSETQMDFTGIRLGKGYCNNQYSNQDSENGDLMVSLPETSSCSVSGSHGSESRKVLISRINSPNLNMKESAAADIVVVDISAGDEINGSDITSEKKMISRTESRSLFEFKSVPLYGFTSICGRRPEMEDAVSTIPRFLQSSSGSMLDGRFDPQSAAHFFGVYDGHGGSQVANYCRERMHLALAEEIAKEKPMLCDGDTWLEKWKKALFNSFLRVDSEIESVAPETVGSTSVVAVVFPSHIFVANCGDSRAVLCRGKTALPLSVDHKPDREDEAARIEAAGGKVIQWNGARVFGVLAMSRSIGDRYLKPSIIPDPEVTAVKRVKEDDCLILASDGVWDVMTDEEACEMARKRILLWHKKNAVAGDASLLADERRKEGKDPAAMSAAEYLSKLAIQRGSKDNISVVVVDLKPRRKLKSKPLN
AD-abi1-1 (P49597, form named): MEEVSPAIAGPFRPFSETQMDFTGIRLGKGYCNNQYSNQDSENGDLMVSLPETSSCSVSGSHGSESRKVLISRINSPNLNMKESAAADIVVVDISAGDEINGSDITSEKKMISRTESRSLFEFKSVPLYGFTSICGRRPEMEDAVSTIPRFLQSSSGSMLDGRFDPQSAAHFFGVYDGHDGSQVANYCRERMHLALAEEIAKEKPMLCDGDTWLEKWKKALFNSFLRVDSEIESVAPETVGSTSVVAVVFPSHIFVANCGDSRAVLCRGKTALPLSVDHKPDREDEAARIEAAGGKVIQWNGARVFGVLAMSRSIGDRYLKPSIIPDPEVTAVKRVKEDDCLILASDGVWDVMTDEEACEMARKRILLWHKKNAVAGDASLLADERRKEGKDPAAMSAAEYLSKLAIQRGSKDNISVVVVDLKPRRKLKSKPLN

In assay [2] the target is T2, SnRK2.6-nLUC (Arabidopsis thaliana) (UniProt Q940H6).
T2 sequence: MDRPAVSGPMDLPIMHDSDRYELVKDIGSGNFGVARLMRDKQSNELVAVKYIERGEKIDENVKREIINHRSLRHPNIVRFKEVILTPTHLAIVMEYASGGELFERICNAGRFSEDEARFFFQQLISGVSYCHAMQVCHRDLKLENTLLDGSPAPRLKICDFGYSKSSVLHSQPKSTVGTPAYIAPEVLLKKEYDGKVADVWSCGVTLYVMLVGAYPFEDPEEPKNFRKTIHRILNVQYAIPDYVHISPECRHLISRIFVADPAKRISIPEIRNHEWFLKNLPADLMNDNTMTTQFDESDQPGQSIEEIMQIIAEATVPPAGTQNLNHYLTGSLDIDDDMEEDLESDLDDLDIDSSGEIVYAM
The assay is described as above.

Assay [3] concerns the target T3, SnRK2.6^13A/Fs-nLUC (Arabidopsis thaliana) (UniProt Q940H6).
T3 sequence: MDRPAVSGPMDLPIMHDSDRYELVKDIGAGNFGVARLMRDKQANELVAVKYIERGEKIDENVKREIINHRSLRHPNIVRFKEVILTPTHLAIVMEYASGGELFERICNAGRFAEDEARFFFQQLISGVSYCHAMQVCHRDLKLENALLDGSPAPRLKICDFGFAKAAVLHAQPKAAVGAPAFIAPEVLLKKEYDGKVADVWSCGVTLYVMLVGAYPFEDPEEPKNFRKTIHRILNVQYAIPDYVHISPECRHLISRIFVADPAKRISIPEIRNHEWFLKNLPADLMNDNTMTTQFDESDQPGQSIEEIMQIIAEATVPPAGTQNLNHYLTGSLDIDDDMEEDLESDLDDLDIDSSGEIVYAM
The description is as above.

Assay [4] addresses T4, BD-SnRK2.6 (pGBKT7) (Arabidopsis thaliana) (UniProt Q940H6).
T4 sequence: T2 sequence
Description: two-hybrid; yeast two-hybrid (Y2H): pGBKT7 BD fusions and pGADT7 AD fusions in yeast strain Gold; growth on SD-LWH or SD-ALWH.

Assay [5] addresses T5, BD-BIK1 (Arabidopsis thaliana) (UniProt O48814).
T5 sequence: T1 sequence
The assay is described as above.

Assay [6] concerns the target T6, BD-SnRK2.6^13A/Fs (Arabidopsis thaliana) (UniProt Q940H6).
T6 sequence: T3 sequence
Described as above.

The target of assay [7] is T7, BD-SnRK2.6 (pBridge) (Arabidopsis thaliana) (UniProt Q940H6).
T7 sequence: T2 sequence
The assay is described as follows: two-hybrid; yeast three-hybrid (Y3H): BD-SnRK2.6 in MCS I of pBridge, without or with BIK1 in MCS II (pMET), with pGADT7 AD fusions in yeast AH109; growth on SD-ALWHM without or with 1 M mannitol.

Assay [8] deals with T8, BIK1-HA (Arabidopsis thaliana) (UniProt O48814).
T8 sequence: T1 sequence
The assay is described as follows: co-IP; total proteins of pBIK1:BIK1-HA transgenic plants in IP buffer (Tris-HCl pH 7.5, NaCl, EDTA, EGTA, 0.2% Tween 20 at 2x), anti-HA nanobody magarose beads 2 h, three washes; blot with anti-SnRK2.2/3/6 and anti-HA.

This is an account of results in PMC11612456.

These are yes or no findings as the source states them, for the method shown. For part of these data: Binding seen in cells or lysates may run through a third protein. Some entries that bind do so weakly or less than the wild type. Where a sequence is shown, tags or fusion partners need not be part of it.

cLUC-ABI1 (from UniProt P49597 1-434): the binding result was “no binding” in assay [1], “binds” in assay [2] and “binds” in assay [3]. As for “cLUC-ABI1^W300A (from UniProt P49597 1-434)”, in assay [2], the binding entry is “binds”.

Take “AD-ABI1^W300A (from UniProt P49597 1-434)”: the binding result in assay [4] is recorded as “binds”. Turning to “cLUC-ABI1^W300R (from UniProt P49597 1-434)”, the binding result in assay [2] was “binds”. Take AD-ABI1 (from UniProt P49597 1-434): the binding result in assay [5] is “no binding”; in assay [4], “binds”; in assay [6], “binds”; in assay [7], “binds”. “AD-ABI1^W300R (from UniProt P49597 1-434)”: the binding entry in assay [4] is given as “binds”. For cLUC-abi1-1 (from UniProt P49597 1-434), the binding entry in assay [2] was “binds”.

On to AD-abi1-1 (from UniProt P49597 1-434), for which, in assay [7], the binding entry is recorded as “binds”.

B1: endogenous SnRK2.2 (protein, UniProt Q39192 1-362)
chain: MDPATNSPIMPIDLPIMHDSDRYDFVKDIGSGNFGVARLMTDRVTKELVAVKYIERGEKIDENVQREIINHRSLRHPNIVRFKEVILTPSHLAIVMEYAAGGELYERICNAGRFSEDEARFFFQQLISGVSYCHAMQICHRDLKLENTLLDGSPAPRLKICDFGYSKSSVLHSQPKSTVGTPAYIAPEILLRQEYDGKLADVWSCGVTLYVMLVGAYPFEDPQEPRDYRKTIQRILSVTYSIPEDLHLSPECRHLISRIFVADPATRITIPEITSDKWFLKNLPGDLMDENRMGSQFQEPEQPMQSLDTIMQIISEATIPTVRNRCLDDFMADNLDLDDDMDDFDSESEIDVDSSGEIVYAL
As to B1, in assay [8], the binding entry is given as “binds”.

B2: endogenous SnRK2.3 (protein, UniProt Q39193 1-361)
chain: MDRAPVTTGPLDMPIMHDSDRYDFVKDIGSGNFGVARLMRDKLTKELVAVKYIERGDKIDENVQREIINHRSLRHPNIVRFKEVILTPTHLAIIMEYASGGELYERICNAGRFSEDEARFFFQQLLSGVSYCHSMQICHRDLKLENTLLDGSPAPRLKICDFGYSKSSVLHSQPKSTVGTPAYIAPEVLLRQEYDGKIADVWSCGVTLYVMLVGAYPFEDPEEPRDYRKTIQRILSVKYSIPDDIRISPECCHLISRIFVADPATRISIPEIKTHSWFLKNLPADLMNESNTGSQFQEPEQPMQSLDTIMQIISEATIPAVRNRCLDDFMTDNLDLDDDMDDFDSESEIDIDSSGEIVYAL
As for B2, the binding entry in assay [8] is “binds”.
